Among the data in PubChem BioAssay AID1259407 (Chemical Carcinogenesis Research Information System (CCRIS), 2018) are mutagenic call values, retold here.

Entries after “also recorded” stand apart in the source; their conditions may differ. For part of its entries the source gives two or more results. This list holds those alone. How the calls were made is not given here. An entry can have further records. The records of an entry do not match, cause unknown; they may come from other doses, times, organisms or constructs than stated. A tag in brackets gives the origin of a value. A, B and so on number the origins entry by entry. Brackets with × give the number of equal values in this list.

In the data set the test system is CCRIS mutagenicity, Ames/micronucleus/aberration tests. The data set can be described thus: CCRIS mutagenicity studies.
Where [1] appears, read: End Point: In vitro chromosomal aberrations, Test System: Chinese hamster lung (CHL/IU) cells, Metabolic Activation: None.
[2] abbreviates: Test System: AMES SALMONELLA TYPHIMURIUM, Strain/Indicator: TA98, Metabolic Activation: NONE, Method: PREINCUBATION
[3] abbreviates: Test System: MOUSE LYMPHOMA, Strain/Indicator: L5178Y (TK+/TK-), Metabolic Activation: NONE, Method: SUSPENSION/PLATE.
Setting [4] is: End Point: IN VITRO CHROMOSOMAL ABERRATIONS, Test System: CHL CELLS, Metabolic Activation: NONE.
[5] abbreviates: Test System: AMES SALMONELLA TYPHIMURIUM, Strain/Indicator: TA98, Metabolic Activation: NONE, Method: STANDARD PLATE.
[6] abbreviates: End Point: IN VITRO CHROMOSOMAL ABERRATIONS, Test System: CHO CELLS, Metabolic Activation: RAT, LIVER, S-9, AROCLOR 1254.
The mark [7] stands for this setting: End Point: IN VITRO CHROMOSOMAL ABERRATIONS, Test System: CHINESE HAMSTER LUNG CELLS (CHL), Metabolic Activation: NONE.

Regarding `C1N2CN3CN1CN(C2)C3`, the mutagenic call runs as follows: under setting [1], “active; positive (structural changes and ploidy) (2×); also recorded: active; positive (structural changes)”; under setting [2], “active; positive [study A] and inactive; negative [study B] and inactive; negative [study C]”.
As for `O=C([O-])c1ccc2ccccc2c1.[Mn+2].[O-]C(O)c1ccc2ccccc2c1`, the mutagenic call is, setting by setting: under setting [3], “inactive; negative. reevaluation of results: inconclusive [study A]; also recorded: inactive; negative [study B]”; (Test System: MOUSE LYMPHOMA, Strain/Indicator: L5178Y (TK+/TK-), Metabolic Activation: RAT, LIVER, S-9, AROCLOR 1254, Method: SUSPENSION/PLATE) “active; positive. reevaluation of results: equivocal [study A]; also recorded: active; positive [study B]”.
In the case of `CCN(CC)c1cc(NC(C)=O)c(N=Nc2c(Cl)cc([N+](=O)[O-])cc2[N+](=O)[O-])cc1OC`, the mutagenic call under setting [4] is “inactive; negative (2×); also recorded: inactive; negative; authors report equivocal results for ploidy changes”.
With `CCN(C)N=O`, the mutagenic call (Test System: AMES SALMONELLA TYPHIMURIUM, Strain/Indicator: TA100, Metabolic Activation: MOUSE, LIVER, S-9, Method: PREINCUBATION) is “inactive; negative [study A] and active; positive [study B]”.
Turning to `CCc1ccco1`, under “Test System: Mouse lymphoma, Strain/Indicator: L5178Y (tk+/tk-), Metabolic Activation: None, Method: Suspension/plate”, the mutagenic call is “inactive; negative and active; positive”.
Regarding `C[C@]12C=CC3=C4CCC(=O)C=C4CC[C@H]3[C@@H]1CC[C@@H]2O`, the mutagenic call by setting is: (Test System: AMES SALMONELLA TYPHIMURIUM, Strain/Indicator: TA1535, Metabolic Activation: NONE, Method: STANDARD PLATE) “inactive; negative; toxicity at 2000 and 3000 ug/plate [study A]; also recorded: inactive; negative [study B]”; (Test System: AMES SALMONELLA TYPHIMURIUM, Strain/Indicator: TA1537, Metabolic Activation: NONE, Method: STANDARD PLATE) “inactive; negative; toxicity at 2000 and 3000 ug/plate [study A]; also recorded: inactive; negative [study B]”; (Test System: AMES SALMONELLA TYPHIMURIUM, Strain/Indicator: TA1538, Metabolic Activation: NONE, Method: STANDARD PLATE) “inactive; negative; toxicity at 3000 ug/plate [study A]; also recorded: inactive; negative [study B]”.
In the case of `C[Si](C)(C)Cl`, the mutagenic call under setting [3] was “inactive; negative [study A]; also recorded: inactive; negative. reevaluation of results: negative [study B]”.
As for `CN(C)C(=S)SSC(=S)N(C)C`, the mutagenic call under setting [5] is “active; positive [study A] and active; positive [study B] and inactive; negative [study C]”.
On to `Nc1ncn([C@@H]2O[C@H](CO)[C@@H](O)[C@H]2O)c(=O)n1`, for which, under setting [3], the mutagenic call is “active; positive [study A]; also recorded: active; positive. reevaluation of results: positive [study B]”.
Turning to `C=CCOC(=O)CC(C)C`, under setting [6], the mutagenic call is “inactive; negative and active; positive”.
Turning to `O=C(O)CCCl`, the mutagenic call (Test System: Ames Salmonella typhimurium, Strain/Indicator: TA1537, Metabolic Activation: None, Method: Preincubation) was “inactive; negative (2×); also recorded: inactive; negative (two experimental trials)”.
Take `O=C1N(CO)C(O)C(O)N1CO` (stereo unspecified): the mutagenic call under setting [2] is “inactive; negative [100 to 10000 µg/plate] and active; positive [333 to 10000 µg/plate]”; the mutagenic call (Test System: AMES SALMONELLA TYPHIMURIUM, Strain/Indicator: TA100, Metabolic Activation: HAMSTER, LIVER, S-9, AROCLOR 1254 (10%), Method: PREINCUBATION) is “inactive; negative [100 to 10000 µg/plate] and active; positive [333 to 10000 µg/plate]”; the mutagenic call (Test System: AMES SALMONELLA TYPHIMURIUM, Strain/Indicator: TA100, Metabolic Activation: RAT, LIVER, S-9, AROCLOR 1254 (10%), Method: PREINCUBATION) is “inactive; negative [100 to 10000 µg/plate] and active; positive [333 to 10000 µg/plate]”.
For `O=C(O)c1ccccc1[N+](=O)[O-]`, the mutagenic call (Test System: AMES SALMONELLA TYPHIMURIUM, Strain/Indicator: TA100, Metabolic Activation: NONE, Method: PREINCUBATION) is “active; positive [study A] and inactive; negative [study B] and inactive; negative [study C]”.
`C=CCCl`: the mutagenic call by setting is: under setting [4], “active; positive (structural changes); authors report equivocal results for ploidy chang (2×); also recorded: active; positive (structural and ploidy changes)”; (Test System: Ames Salmonella typhimurium, Strain/Indicator: TA98, Metabolic Activation: None, Method: Preincubation) “inactive; negative; also recorded: active; positive; also recorded: inactive; negative. retest results differed from initial test results”; (Test System: Ames Salmonella typhimurium, Strain/Indicator: TA100, Metabolic Activation: None, Method: Preincubation) “inactive; negative and active; positive”; (Test System: Ames Salmonella typhimurium, Strain/Indicator: TA1535, Metabolic Activation: None, Method: Preincubation) “active; positive (*only at dose where growth inhibition observed); also recorded: active; positive”; (Test System: Ames Salmonella typhimurium, Strain/Indicator: TA1535, Metabolic Activation: Rat, Liver, S9, Sodium phenobarbital and 5,6-benzoflavone (10%), Method: Preincubation) “inactive; negative; also recorded: active; positive (weak response); also recorded: inactive; negative. retest results differed from initial test results”; (Test System: E. coli, Strain/Indicator: WP2uvrA/pKM101, Metabolic Activation: None, Method: Preincubation) “active; positive and active; positive (results of two tests)”. The mutagenic call (Test System: E. coli, Strain/Indicator: WP2uvrA/pKM101, Metabolic Activation: Rat, Liver, S9, Sodium phenobarbital and 5,6-benzoflavone (10%), Method: Preincubation) is “active; positive and active; positive (results of two tests)”.
Consider `Oc1c(Cl)ccc(Cl)c1Cl`, for which the mutagenic call under setting [7] was “inactive; negative; authors report results from 48 hr treatment time as inconclusive; also recorded: inactive; negative”.
Regarding `O=C1[C@H]2CC=CC[C@H]2C(=O)N1SC(Cl)(Cl)Cl`, the mutagenic call was “active; positive and inactive; negative” (Test System: AMES SALMONELLA TYPHIMURIUM, Strain/Indicator: TA100, Metabolic Activation: RAT, LIVER, S-9, AROCLOR 1254, Method: STANDARD PLATE); “active; positive (2×) and inactive; negative” (Test System: AMES SALMONELLA TYPHIMURIUM, Strain/Indicator: TA104, Metabolic Activation: NONE, Method: STANDARD PLATE).
Take `NCc1ccc(CN)cc1`: the mutagenic call is, setting by setting: (Test System: AMES SALMONELLA TYPHIMURIUM, Strain/Indicator: TA104, Metabolic Activation: NONE, Method: PREINCUBATION) “inactive; negative (2×) and active; positive”; (Test System: AMES SALMONELLA TYPHIMURIUM, Strain/Indicator: TA104, Metabolic Activation: RAT, LIVER, S-9, PHENOBARBITAL AND BETA-NAPHTHOFLAVONE, Method: PREINCUBATION) “active; positive (2×) and inactive; negative”.
Turning to `O=CC=O`, the mutagenic call is “inactive; negative and active; positive” (Test System: AMES SALMONELLA TYPHIMURIUM, Strain/Indicator: TA98, Metabolic Activation: RAT LIVER S-9, PHENOBARBITAL AND BETA-NAPHTHOFLAVONE, Method: PREINCUBATION); “active; positive [study A] and inactive; negative [study B] and active; positive [study C]” (Test System: AMES SALMONELLA TYPHIMURIUM, Strain/Indicator: TA102, Metabolic Activation: NONE, Method: PREINCUBATION); “inactive; negative and active; positive” (Test System: AMES SALMONELLA TYPHIMURIUM, Strain/Indicator: TA1535, Metabolic Activation: NONE, Method: PREINCUBATION).
As for `CC(=O)N1CCc2cc([N+](=O)[O-])ccc21`, the mutagenic call under setting [4] was “inactive; negative and active; positive (ploidy changes)”.
As to `CCOC(=O)CC(SP(=O)(OC)OC)C(=O)OCC` (stereo unspecified), the mutagenic call under setting [6] was “inactive; negative; also recorded: inactive; negative; previous trial yielded positive result at 3010 ug/ml but no dose-respo”.
On to `C1CSCCS1`, for which the mutagenic call under setting [5] was “active; positive [study A] and inactive; negative [study B]”; the mutagenic call (Test System: AMES SALMONELLA TYPHIMURIUM, Strain/Indicator: TA100, Metabolic Activation: NONE, Method: STANDARD PLATE) is “active; positive [study A] and inactive; negative [study B]”.
With `Nc1ccccc1S`, the mutagenic call reads like this: under setting [1], “active; positive (structural changes and ploidy) (2×); also recorded: active; positive (structural changes and ploidy). weak response”; under setting [2], “inactive; negative and active; positive”.
In the case of `CC(C)Oc1ccc(Nc2ccccc2)cc1`, the mutagenic call under setting [7] is “inactive; negative; authors describe highest dose as inconclusive; also recorded: active; positive at highest dose; also recorded: inactive; negative; authors describe results at highest dose as inconclusive”; the mutagenic call under setting [4] is “inactive; negative (2×) and active; positive (structural changes)”; the mutagenic call (End Point: IN VITRO CHROMOSOMAL ABERRATIONS, Test System: CHO CELLS, Metabolic Activation: NONE) is “inactive; negative and active; positive (structural changes) (2×)”.
In the case of `CC=O`, the mutagenic call under setting [3] is “active; positive. reevaluation of results: positive [study A]; also recorded: active; positive [study B]”.
On to `O=C([O-])c1ccccn1.O=C([O-])c1ccccn1.O=C([O-])c1ccccn1.[Cr+3]`, for which the mutagenic call runs as follows: under setting [3], “active; positive [study A]; also recorded: active; positive. reevaluation of results: positive [study B]”; (Test System: MOUSE LYMPHOMA, Strain/Indicator: L5178Y (TK+/TK-), Metabolic Activation: RAT LIVER S-9, AROCLOR 1254, Method: SUSPENSION/PLATE) “active; positive [study A]; also recorded: active; positive. reevaluation of results: positive [study B]”.
